Data taken from the supplement of paper PMC4967469.
IC50 is the fitted dose that halves viability relative to control wells, and lower means more sensitive; fits outside the tested doses are given as limits. For AUC the same curve is integrated over the 256-fold range of doses and scaled to a fraction; values near 1 show little effect. For some assays here: Where the top dose is marked as inferred, it is not printed in the source and was worked back from the curve model.

Assays:
Assay in all cases: Viability of human cancer cell lines after 72 h of drug (GDSC screen)
[1] = compound: CCc1cc(-c2n[nH]c(C)c2-c2ccc3c(c2)OCCO3)c(O)cc1O [CCT018159]; details: top dose 10 µM; top dose inferred
Method: (§1)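 Human cancer cell lines in 384-well plates, medium with 10% serum, drug for 72 h over a 256-fold dose range (nine 2-fold or five 4-fold steps up to the top dose). Adherent lines were fixed and stained with the nucleic acid dye Syto60, suspension lines read with resazurin; signal relative to control wells, capped at 0 and 100%. One two-parameter sigmoid per drug and line, fitted in a mixed model over all curves with the slope shared within a line.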

[2] = compound: O=C(c1ccc(C(=O)N2CCC(N3CCCC3)CC2)c(Nc2ccccc2)c1)N1CCC(N2CCCC2)CC1 [UNC1215]; details: top dose 1 µM; top dose inferred
Method: as §1

[3] = compound: COc1cccc2cc(-c3nc([C@H]4CC[C@H](C(=O)O)CC4)n4ncnc(N)c34)[nH]c12 [OSI-027]; details: top dose 20 µM
Method: as §1

[4] = compound: CN(C)Cc1cccc(N=C(c2ccccc2)c2c(O)[nH]c3cc(C(=O)N(C)C)ccc23)c1 [BIX02189]; details: top dose 20 µM; top dose inferred
Method: as §1

[5] = compound: CS(=O)(=O)c1ccc(C(=O)Nc2ccc(Cl)c(-c3ccccn3)c2)c(Cl)c1 [Vismodegib]; details: top dose 10 µM; top dose inferred
Method: as §1

[6] = compound: Cc1cnc(Nc2ccc(F)cc2Cl)nc1-c1c[nH]c(C(=O)N[C@H](CO)c2cccc(Cl)c2)c1 [VX-11e]; details: top dose 5.12 µM; top dose inferred
Method: as §1

[7] = compound: Cc1cnc(Nc2ccc(OCCN3CCCC3)cc2)nc1Nc1cccc(S(=O)(=O)NC(C)(C)C)c1 [TG101348]; details: top dose 10.24 µM
Method: as §1

[8] = compound: COC(=O)CNC(=O)C(=O)OC [Dimethyloxalylglycine]; details: top dose 4000 µM; top dose inferred
Method: as §1

[9] = compound: C=CCNC1=C2C[C@@H](C)C[C@H](OC)[C@H](O)[C@@H](C)/C=C(\C)[C@H](OC(N)=O)[C@@H](OC)/C=C\C=C(/C)C(=O)NC(=CC1=O)C2=O [17-AAG]; details: top dose 1 µM
Method: as §1

| Cell Line | AUC [1] | IC50 [1] [µM] | AUC [2] | IC50 [2] [µM] | AUC [3] | IC50 [3] [µM] | AUC [4] | IC50 [4] [µM] | AUC [5] | IC50 [5] [µM] | AUC [6] | IC50 [6] [µM] | AUC [7] | IC50 [7] [µM] | AUC [8] | IC50 [8] [µM] | AUC [9] | IC50 [9] [µM] |
| --- | --- | --- | --- | --- | --- | --- | --- | --- | --- | --- | --- | --- | --- | --- | --- | --- | --- | --- |
| M14 (melanoma, adherent) | 0.975 | > 10 | 0.985 | > 1 | 0.987 | > 20 | 0.92 | > 20 | 0.987 | > 10 | 0.586 | 0.559 | 0.987 | > 10.2 | 0.809 | 2220 |  |  |
| BALL-1 (B-cell leukaemia, suspension) | 0.979 | > 10 | 0.997 | > 1 |  |  |  |  | 0.991 | > 10 |  |  |  |  |  |  | 0.993 | > 1 |
| TC-YIK (cervix, suspension) | 0.934 | > 10 | 0.985 | > 1 |  |  |  |  | 0.978 | > 10 |  |  |  |  |  |  | 0.891 | 0.894 |
| U251 (glioma, adherent) | 0.817 | 5.27 | 0.987 | > 1 | 0.461 | 0.983 | 0.942 | > 20 | 0.965 | > 10 | 0.933 | > 5.12 | 0.936 | > 10.2 | 0.467 | 204 |  |  |
| CHP-134 (neuroblastoma, suspension) |  |  |  |  | 0.551 | 1.79 | 0.928 | > 20 |  |  | 0.979 | > 5.12 | 0.827 | 8.71 |  |  | 0.894 | > 1 |
| SK-OV-3 (ovary, adherent) | 0.94 | > 10 | 0.979 | > 1 | 0.466 | 0.983 | 0.93 | > 20 | 0.981 | > 10 | 0.964 | > 5.12 | 0.671 | 2.18 | 0.615 | 562 |  |  |
| HCC1806 (breast, adherent) | 0.918 | > 10 | 0.988 | > 1 | 0.767 | 6.86 | 0.941 | > 20 |  |  | 0.918 | > 5.12 | 0.887 | 9.77 | 0.78 | 1510 | 0.626 | 0.134 |
| RPMI-8226 (myeloma, suspension) | 0.887 | 8.66 | 0.985 | > 1 | 0.305 | 0.387 | 0.933 | > 20 | 0.927 | > 10 | 0.941 | > 5.12 | 0.782 | 3.71 | 0.745 | 1120 |  |  |
| MDA-MB-436 (breast, adherent) | 0.974 | > 10 | 0.978 | > 1 | 0.948 | > 20 | 0.97 | > 20 |  |  | 0.983 | > 5.12 | 0.984 | > 10.2 | 0.699 | 1060 | 0.624 | 0.15 |
| SUP-B8 (B-cell leukaemia, suspension) | 0.922 | > 10 | 0.987 | > 1 |  |  |  |  | 0.98 | > 10 |  |  |  |  |  |  | 0.959 | > 1 |
| MHH-CALL-2 (B-cell leukaemia, suspension) | 0.953 | > 10 | 0.993 | > 1 |  |  |  |  | 0.996 | > 10 |  |  |  |  |  |  | 0.936 | 0.941 |
| NCI-H522 (lung adenocarcinoma, adherent) | 0.926 | > 10 | 0.982 | > 1 | 0.954 | > 20 | 0.968 | > 20 |  |  | 0.977 | > 5.12 | 0.943 | > 10.2 | 0.474 | 209 | 0.797 | 0.575 |
| CRO-AP2 (B-cell lymphoma, suspension) | 0.761 | 3.13 | 0.981 | > 1 |  |  |  |  | 0.957 | > 10 |  |  |  |  |  |  | 0.843 | 0.575 |
| ACHN (kidney, adherent) | 0.878 | > 10 | 0.977 | > 1 | 0.777 | 9.23 | 0.873 | > 20 | 0.963 | > 10 | 0.944 | > 5.12 | 0.789 | 5.23 | 0.529 | 303 |  |  |
| MEL-HO (melanoma, adherent) | 0.902 | > 10 | 0.985 | > 1 |  |  |  |  | 0.966 | > 10 |  |  |  |  |  |  | 0.524 |  |
| ChaGo-K-1 (non-small cell lung carcinoma, adherent) | 0.927 | > 10 | 0.983 | > 1 | 0.837 | 16.6 | 0.975 | > 20 |  |  | 0.98 | > 5.12 | 0.965 | > 10.2 | 0.737 | 1350 | 0.689 | 0.232 |
| RERF-GC-1B (stomach, adherent) | 0.978 | > 10 | 0.983 | > 1 | 0.729 | 6.11 | 0.886 | > 20 |  |  | 0.853 | 4.73 | 0.575 | 1.05 | 0.567 | 389 | 0.98 | > 1 |
| MOLT-16 (T-cell lymphoblastic leukaemia, suspension) | 0.766 | 3 | 0.985 | > 1 |  |  |  |  | 0.948 | > 10 |  |  |  |  |  |  | 0.984 | > 1 |
| THP-1 (acute myeloid leukaemia, suspension) | 0.976 | > 10 | 0.988 | > 1 | 0.442 | 0.885 | 0.923 | > 20 |  |  | 0.919 | > 5.12 |  |  | 0.84 | 2370 | 0.93 | > 1 |
